Data taken from patent publication US10299477B2 (priority 2015, dated 2019).

How the values were obtained:
Phytophthora infestans = type: in vivo; details: for Test F (control value class): late blight on tomato, Phytophthora infestans, 250 ppm spray, 5-10 days after inoculation; for Test F (control value class, late blight on tomato): 250 ppm, sprayed 2.5 ml/pot before inoculation, evaluated 5-10 days after inoculation
Magnaporthe grisea = type: in vivo; details: for Test A (control value class): rice blast, Magnaporthe grisea, 250 ppm spray; for Test A (control value class, blast on rice): in vivo

Row | SMILES | Test F (control value class) (Phytophthora infestans) | Test A (control value class) (Magnaporthe grisea) | Test F (control value class, late blight on tomato) (Phytophthora infestans) | Test A (control value class, blast on rice) (Magnaporthe grisea)
1 | CCn1c(-c2c(F)cc(OC)cc2F)c(-c2ccccc2F)cc(Br)c1=O [Compound 541] | L (L shows 50% or less of control values) | H (H shows more than 50% of control values) | – | –
2 | CCn1c(-c2c(F)cc(F)cc2F)c(-c2ccccc2F)cc(C)c1=O [Compound 542] | H (H shows more than 50% of control values) | H (H shows more than 50% of control values) | – | –
3 | Cn1c(-c2c(F)cc(F)cc2F)c(-c2ccccc2F)cc(Cl)c1=O [Compound 543] | L (L shows 50% or less of control values) | H (H shows more than 50% of control values) | – | –
4 | COc1cc(F)c(-c2c(-c3ccccc3F)ccc(=O)n2C)c(F)c1 [Compound 544] | L (L shows 50% or less of control values) | H (H shows more than 50% of control values) | – | –
5 | Cn1c(-c2c(F)cc(F)cc2F)c(-c2ccccc2F)cc(Br)c1=O [Compound 545] | L (L shows 50% or less of control values) | H (H shows more than 50% of control values) | – | –
6 | CCn1c(-c2c(F)cc(OC)cc2F)c(-c2cc(F)cc(F)c2F)cc(Cl)c1=O [Compound 546] | L (L shows 50% or less of control values) | H (H shows more than 50% of control values) | – | –
7 | CCOc1cc(F)c(-c2c(-c3cc(F)ccc3Cl)cc(Cl)c(=O)n2CC)c(F)c1 [Compound 547] | L (L shows 50% or less of control values) | H (H shows more than 50% of control values) | – | –
8 | CCn1c(-c2c(F)cc(OC)cc2F)c(-c2cc(F)cc(F)c2F)ccc1=O [Compound 548] | L (L shows 50% or less of control values) | H (H shows more than 50% of control values) | – | –
9 | COc1cc(F)c(-c2c(-c3cc(F)cc(F)c3F)cc(Cl)c(=O)n2C)c(F)c1 [Compound 549] | L (L shows 50% or less of control values) | H (H shows more than 50% of control values) | – | –
10 | COc1cc(F)c(-c2c(-c3cc(F)cc(F)c3F)ccc(=O)n2C)c(F)c1 [Compound 550] | L (L shows 50% or less of control values) | H (H shows more than 50% of control values) | – | –
11 | CCn1c(-c2c(F)cccc2F)c(-c2cc(F)cc(F)c2Cl)ccc1=O [Compound 551] | L (L shows 50% or less of control values) | H (H shows more than 50% of control values) | – | –
12 | CCn1c(-c2c(F)cccc2F)c(-c2cc(F)cc(F)c2Cl)cc(Cl)c1=O [Compound 552] | L (L shows 50% or less of control values) | H (H shows more than 50% of control values) | – | –
13 | Cn1c(-c2c(F)cccc2F)c(-c2cc(F)cc(F)c2Cl)ccc1=O [Compound 553] | H (H shows more than 50% of control values) | H (H shows more than 50% of control values) | – | –
14 | Cn1c(-c2c(F)cccc2F)c(-c2cc(F)cc(F)c2Cl)cc(Cl)c1=O [Compound 554] | L (L shows 50% or less of control values) | H (H shows more than 50% of control values) | – | –
15 | O=c1ccc(-c2cc(F)cc(F)c2Cl)c(-c2c(F)cccc2F)n1CC(F)F [Compound 555] | L (L shows 50% or less of control values) | H (H shows more than 50% of control values) | – | –
16 | O=c1c(Cl)cc(-c2cc(F)cc(F)c2Cl)c(-c2c(F)cccc2F)n1CC(F)F [Compound 556] | L (L shows 50% or less of control values) | H (H shows more than 50% of control values) | – | –
17 | Cn1c(-c2c(F)cc(F)cc2F)c(-c2cccc(F)c2F)ccc1=O [Compound 557] | L (L shows 50% or less of control values) | H (H shows more than 50% of control values) | – | –
18 | CCn1c(-c2c(F)cc(F)cc2F)c(-c2cccc(F)c2F)ccc1=O [Compound 558] | L (L shows 50% or less of control values) | H (H shows more than 50% of control values) | – | –
19 | Cn1c(-c2c(F)cc(F)cc2F)c(-c2cccc(F)c2F)cc(Cl)c1=O [Compound 559] | L (L shows 50% or less of control values) | H (H shows more than 50% of control values) | – | –
20 | Cn1c(-c2c(F)cc(F)cc2F)c(-c2cccc(F)c2F)cc(Br)c1=O [Compound 560] | L (L shows 50% or less of control values) | H (H shows more than 50% of control values) | – | –
21 | COc1cc(F)c(-c2c(-c3cccc(F)c3F)ccc(=O)n2C)c(F)c1 [Compound 561] | – | – | L (L shows 50% or less of control values) | H (H shows more than 50% of control values)

Row | SMILES | Test F (control value class) (Phytophthora infestans) | Test A (control value class) (Magnaporthe grisea) | Test F (control value class, late blight on tomato) (Phytophthora infestans) | Test A (control value class, blast on rice) (Magnaporthe grisea)
22 | COc1cc(F)c(-c2c(-c3cccc(F)c3F)cc(Cl)c(=O)n2C)c(F)c1 [Compound 562] | – | – | L (L shows 50% or less of control values) | H (H shows more than 50% of control values)
23 | COc1cc(F)c(-c2c(-c3cccc(F)c3F)cc(Br)c(=O)n2C)c(F)c1 [Compound 563] | – | – | L (L shows 50% or less of control values) | H (H shows more than 50% of control values)
24 | Cc1cc(-c2cccc(F)c2F)c(-c2c(F)cc(F)cc2F)n(C)c1=O [Compound 564] | – | – | L (L shows 50% or less of control values) | H (H shows more than 50% of control values)
25 | COc1cc(F)c(-c2c(-c3cccc(F)c3F)cc(C)c(=O)n2C)c(F)c1 [Compound 565] | – | – | L (L shows 50% or less of control values) | H (H shows more than 50% of control values)
26 | CCn1c(-c2c(F)cc(F)cc2F)c(-c2cccc(F)c2F)cc(Cl)c1=O [Compound 566] | – | – | L (L shows 50% or less of control values) | H (H shows more than 50% of control values)
27 | CCn1c(-c2c(F)cc(F)cc2F)c(-c2cccc(F)c2F)cc(Br)c1=O [Compound 567] | – | – | L (L shows 50% or less of control values) | H (H shows more than 50% of control values)
28 | CCn1c(-c2c(F)cc(F)cc2F)c(-c2ccccc2F)cc(F)c1=O [Compound 568] | – | – | L (L shows 50% or less of control values) | H (H shows more than 50% of control values)
29 | CCn1c(-c2c(F)cc(OC)cc2F)c(-c2ccccc2F)cc(C)c1=O [Compound 569] | – | – | L (L shows 50% or less of control values) | H (H shows more than 50% of control values)
30 | COc1cc(F)c(-c2c(-c3ccccc3F)cc(Cl)c(=O)n2C)c(F)c1 [Compound 570] | – | – | L (L shows 50% or less of control values) | H (H shows more than 50% of control values)
31 | Cc1cc(-c2ccccc2F)c(-c2c(F)cc(F)cc2F)n(C)c1=O [Compound 571] | – | – | H (H shows more than 50% of control values) | H (H shows more than 50% of control values)
32 | COc1cc(F)c(-c2c(-c3ccccc3F)cc(Br)c(=O)n2C)c(F)c1 [Compound 572] | – | – | L (L shows 50% or less of control values) | H (H shows more than 50% of control values)
33 | CCN1C(=O)CCC(c2ccc(F)cc2Cl)=C1c1c(F)cc(F)cc1F [Compound 573] | – | – | L (L shows 50% or less of control values) | H (H shows more than 50% of control values)
34 | CN1C(=O)CCC(c2ccc(F)cc2Cl)=C1c1c(F)cc(F)cc1F [Compound 574] | – | – | H (H shows more than 50% of control values) | H (H shows more than 50% of control values)
35 | CCn1c(-c2c(F)cc(F)cc2F)c(-c2ccc(F)cc2Cl)ccc1=O [Compound 575] | – | – | L (L shows 50% or less of control values) | H (H shows more than 50% of control values)
36 | Cn1c(-c2c(F)cc(F)cc2F)c(-c2ccc(F)cc2Cl)ccc1=O [Compound 576] | – | – | L (L shows 50% or less of control values) | H (H shows more than 50% of control values)
37 | CCn1c(-c2c(F)cc(F)cc2F)c(-c2ccc(F)cc2Cl)cc(Cl)c1=O [Compound 577] | – | – | L (L shows 50% or less of control values) | H (H shows more than 50% of control values)
38 | CCn1c(-c2c(F)cc(F)cc2F)c(-c2ccc(F)cc2Cl)cc(Br)c1=O [Compound 578] | – | – | L (L shows 50% or less of control values) | H (H shows more than 50% of control values)
39 | CCOc1cc(F)c(-c2c(-c3cc(F)cc(F)c3F)ccc(=O)n2CC)c(F)c1 [Compound 579] | – | – | L (L shows 50% or less of control values) | H (H shows more than 50% of control values)
40 | CCOc1cc(F)c(-c2c(-c3cc(F)cc(F)c3F)cc(Cl)c(=O)n2CC)c(F)c1 [Compound 580] | – | – | L (L shows 50% or less of control values) | H (H shows more than 50% of control values)
41 | CCN1C(=S)CCC(c2cc(OC)ccc2Cl)=C1c1c(F)cccc1F [Compound 581] | – | – | L (L shows 50% or less of control values) | H (H shows more than 50% of control values)
